From patent US20230250147A1, “GLP-1R AGONISTIC PEPTIDES WITH REDUCED ACTIVITY” (SANOFI, priority 2020, published 2023)

B1: SEQ ID NO: 8: GLP-1RA/FGF21 Fc fusion protein (protein)
chain: GHGEGTFTSDKSKQLEEEAVRLFIEWLKAGGPKKIRYSGGGGGGGSGGGGSGGGGSA[… human IgG1 Fc with changes …]GGGSGSAHPIPDSSPLLQFGGQVRQRYLYTDDACQTEAHLEIREDGTVGGAADQSPESLLQLKALKPGVIQILGVKTSRFLCQRPDGALYGSLHFDPEACSFRELLLEDGYNVYQSEAHGLPLHLPGCKSPHRDPAPRGPARFLPLPGLPPAPPEPPGILAPQPPDVGSSDPLSMVYPSQGRSPSYAS
modifications: Fusion Protein
notes: GLP-1RA/FGF21 Fc fusion protein
B2: SEQ ID NO: 7: GLP-1RA/FGF21 Fc fusion protein (protein)
chain: GHGEGTFTSDKSKQLEEEAVRLFIEWLKAGGPKKIRYSGGGGGGGSGGGGSGGGGSA[… human IgG1 Fc with changes …]GGGSGSAHPIPDSSPLLQFGGQVRQRYLYTDDACQTEAHLEIREDGTVGGAADQSPESLLQLKALKPGVIQILGVKTSRFLCQRPDGALYGSLHFDPEACSFRELLLEDGYNVYQSEAHGLPLHLPGCKSPHRDPAPRGPARFLPLPGLPPAPPEPPGILAPQPPDVGSSDPLSMVGSQGRSPSYAS
modifications: Fusion Protein
notes: as for B1

Experiments:
[1] = system: female DIO mice; assay: Multiple dose diet-induced obese (DIO) mice: body weight and food consumption; assay type: in vivo, Female C57BL/6N mice; details: vs vehicle or dulaglutide; for body weight: once weekly dosing for 4 weeks; for cumulative food consumption: once weekly dosing, end of the study
Protocol: Female C57BL/6N Charles River mice were housed in groups in a specific pathogen-free barrier facility on a 12 hour light/12 hour dark cycle with free access to water and standard or high-fat diet (ssniff adjusted Fat Diet E15797). After 20 weeks of pre-feeding on high-fat diet, mice were stratified for body weight to treatment groups (n=8), so that each group had similar mean body weight. An age-matched group with ad-libitum access to standard chow (ssniff R/M-H, V1534-0) was included as standard control group. A dulaglutide treated group was also included as comparator. Prior to the start of treatment, mice were subcutaneously (s.c.) injected with vehicle solution and weighed for 3 days to acclimate them to the procedures.
1) Acute effect on blood glucose in fed female DIO mice: initial blood samples were taken just before first administration (s.c.) of vehicle (phosphate buffer solution) or first administration of GLP-1 RA/FGF21 Fc fusion proteins (dissolved in phosphate buffer), respectively. The volume of administration was 5 or 10 mL/kg, depending on concentration of stock solution. The animals had access to water and their corresponding diet during the experiment. Blood glucose levels were measured at t=0 hours, t=1 hour, t=2 hours, t=3 hours, t=4 hours, t=6 hours and t=24 hours (method: Accu-Check glucometer). Blood sampling was performed by tail incision without anaesthesia.
2) Chronic effect on body weight in female DIO mice: mice were treated once weekly, every 8th day in the morning at the beginning of the light phase with either vehicle or test compounds for 4 weeks. Body weight and food consumption were recorded daily. Two days before start of treatment and on day 26, total fat mass was measured by nuclear magnetic resonance (NMR).

[2] = system: female diabetic db/db mice; assay: Blood glucose-lowering effects of multiple subcutaneous doses in fed, female diabetic db/db mice; assay type: in vivo; details: for HbA1c: end of the study (day 36)
Protocol: Female, healthy, lean (BKS.Cg-(lean)/OlaHsd or BKS.Cg-Dock7(m)+/+Lepr(db)J) and diabetes-prone, obese db/db (BKS.Cg-+Leprdb/+Leprdb/OlaHsd or BKS.CG-m+/+Lepr(db)/J) mice were ordered from Envigo RMS Inc. or Charles River Laboratories. All animals were group housed in shoebox cages with wood chip bedding and were acclimated for approximately 2 to 3 weeks prior to dosing phase.
Mice were housed under vivarium conditions including a 12 hour light/12 hour dark cycle (light phase 04:00 AM-4:00 PM), a room temperature between 20-26° C. and a relative humidity between 30-70%. All animals had free access to Greenfield city water and a Purina Fomulab Diet 5008. At the study start mice were approximately 10-12 weeks old.
Blood was collected for a HbA1c and blood glucose measurement on day 9 via tail clips. Blood glucose concentrations were measured using AlphaTRAK glucometers extended range (code 29 strips). Glucometer measurements were taken prior to any other in life activities and were performed in duplicate. If the values differed by more than 20 mg/dL (calculated glucometer value) a third value was recorded. Body mass measurements were collected on days 9 and 15. HbA1c and body mass values were used for block randomization. Animals were assigned to treatment groups (n=8/group) and to new cages and cage mates (n=4 animals/cage) on day 15 according to block randomization results. The lean group was included in the study as an age-matched, healthy reference group.
Animals were either treated with a subcutaneous injection volume of 5 ml/kg of vehicle (sterile PBS), dulaglutide, SEQ ID NO: 8 or SEQ ID NO: 7 once on days 1, 8, 15, 22, and 27 of the dosing phase. Dosing was completed between 10:00 and 12:00 AM and was adjusted to the most recent body mass recording of each individual. Injection solutions including Trulicity (Dulaglutide Pen) were prepared by addition of sterile PBS to the stock solutions or Pen formulation in order to achieve the appropriate concentrations.
1) Blood glucose concentrations in morning-fed animals: Animals had unlimited access to water and feed during the experiment. Blood glucose was measured prior to any other in life activities between 10:00 to 12:00 AM on days 1, 2, 8, 9, 15, 16, 22, 23, 27, and 28 as well as 24 hours post-dose on days 2, 9, 16, 23, and 28. In addition, on days 1 and 22, blood was collected 1, 2, 3, 4, 6 and 24 hours post-dose (FIG. 11). Approximately 5 μL of blood were collected via tail clip and blood glucose measurements were performed in duplicate using AlphaTRAK glucometers with the extended range (code 29 strips). If the values differed by more than 20 mg/dL (calculated glucose value) then a third value was recorded. The Area Under the Curve (AUC) was calculated by the trapezoid method for each individual and time period as indicated.
2) HbA1c analysis: Blood was collected via a tail clip on day 9 of the pre-dose phase and day 36 of the dosing phase. Blood was collected into a 5 μL non-additive micro capillary tube and immediately placed into a centrifuge tube containing hemolysate. The tube was shaken vigorously to mix the hemolysate with the blood and placed on a rocker to ensure the blood and reagent were completely mixed.
Statistical analyses: Data are depicted as means±SEM. […]

[3] = system: DIO NASH mice; assay: DIO-NASH mouse model; assay type: in vivo, Male C57BI/6J mice; details: 50 mg/kg once-weekly s.c. for 8 weeks, vs dulaglutide
Protocol: Male C57BI/6J mice at 5 weeks of age were obtained from JanVier (JanVier labs, France), and each group housed 5 animals per cage under a 12 hour dark/12 hour light cycle. Room temperature was controlled to 22° C. 1° C., with 50%±10% humidity. Animals had ad libitum access to diet high in fat (40%, of these 18% trans-fat), 40% carbohydrates (20% fructose) and 2% cholesterol (D09100301, Research Diet, United States) previously described as the AMLN diet (Clapper et al. (2013) Am J Physiol Gastrointest Liver Physiol 305: G483-G495), or regular rodent chow (Altromin 1324, Brogaarden, Denmark), and tap water (lean chow, n=10-12). After 26 weeks, liver biopsies were performed for histological assessment of individual fibrosis and steatosis staging at baseline.
Mice were pretreated with enrofloxazin (Bayer, Germany) (5 mg/mL/1 mL/kg) one day before being biopsied. Prior to biopsy, mice were anesthetized with isoflurane (2%-3%) in 100% oxygen. A small abdominal incision in the midline was made and the left lateral lobe of the liver was exposed. A cone shaped wedge of liver tissue (50-100 mg) was excised from the distal portion of the lobe fixed in 4% paraformaldehyde for histology. The biopsy procedure previously described by Clapper et al. was refined using electrocoagulation of the cut surface of the liver by means of bipolar coagulation using ERBE VIO 1000 electrosurgical unit (ERBE, United States). The liver was returned to the abdominal cavity, abdominal wall was sutured and skin stapled. Carprofen (Pfizer, United States) (5 mg/mL-0.01 mL/10 g) and enrofloxazin (5 mg/mL-1 mL/kg) were administered intraperitoneal at the time of surgery and at post-operation day one and two, to control postoperative pain relief and infection, respectively. Following biopsy procedure animals were single housed and kept on AMLN diet for 3 weeks to recover. Stratification and randomization into study groups of 10-12 animals was based on individual disease staging as assessed by baseline liver biopsies.
Animals were then treated with 50 mg/kg GLP-1RA/FGF21 Fc fusion protein, 0.6 mg/kg dulaglutide, or vehicle (PBS) once-weekly subcutaneously injections for further 8 weeks either on AMLN or chow diet. Subsequently animals were euthanized, liver weights were determined, and liver tissue collected for histological and biochemical analyses (see FIG. 13).
Baseline liver biopsy and terminal samples were collected from the left lateral lobe (about 100 mg) and fixed overnight in 4% paraformaldehyde. Liver tissue was paraffin embedded and sectioned (3 μm thickness). To assess hepatic morphology and fibrosis, sections were stained with Hematoxylin and Eosin and Sirius Red, respectively, followed by analysis with Visiomorph software (Visiopharm, Denmark). Histological assessment and scoring was performed by a pathologist blinded to the study. NAFLD activity score (NAS) (steatosis, inflammation, ballooning degeneration) and fibrosis stage were performed using the clinical criteria outlined by Kleiner et al. (2005) Hepatology 41: 1313-1321. Data are presented in two different formats in FIG. 14 and FIG. 15.

[4] = 24 hour profile, vs vehicle or dulaglutide

| Molecule | body weight [1] | cumulative food consumption [1] | blood glucose levels [2, 4] | HbA1c ([2]; vs vehicle or dulaglutide) | blood glucose levels ([2]; highest dose, 24 hour blood glucose profile on day 22 of treatment) | NAFLD activity score [3] | liver cholesterol content [3] | liver total lipid content [3] | liver triglyceride content [3] | liver weight [3] |
| --- | --- | --- | --- | --- | --- | --- | --- | --- | --- | --- |
| B1 | significantly lost more body weight than the vehicle or dulaglutide treated animals | cumulatively consumed more food than vehicle or dulaglutide treated animals | lowering effect on blood glucose levels was significantly greater than in vehicle or dulaglutide treated animals | more pronounced suppression of HbA1c increase | reduction of blood glucose levels to normal non-diabetic animal levels | superior to those of GLP-1 agonism alone | superior to those of GLP-1 agonism alone | superior to those of GLP-1 agonism alone | superior to those of GLP-1 agonism alone | superior to those of GLP-1 agonism alone |
| B2 | significantly lost more body weight than the vehicle or dulaglutide treated animals | cumulatively consumed more food than vehicle or dulaglutide treated animals | lowering effect on blood glucose levels was significantly greater than in vehicle or dulaglutide treated animals | more pronounced suppression of HbA1c increase |  |  |  |  |  |  |
